What follows are compounds tested against HCV NS3/NS4A protease (strain 1a) (Hepatitis C virus genotype 1a, UniProt P27958) (assay: biochemical). Settings: not given.
Method: Spectronhotometric Assay: Spectrophotometric assay for the HCV serine protease was performed on the inventive compounds by following the procedure described by R. Zhang et al., Analytical Biochemistry, 270 (1999) 268-275, the disclosure of which is incorporated herein by reference. The assay based on the proteolysis of chromogenic ester substrates is suitable for the continuous monitoring of HCV NS3 protease activity. The substrates were derived from the P side of the NS5A—NS5B junction sequence (Ac-DTEDVVX(Nva) (SEQ ID NO: 1), where X=A or P) whose C-terminal carboxyl groups were esterified with one of four different chromophoric alcohols (3- or 4-nitrophenol, 7-hydroxy-4-methyl-coumarin, or 4-phenylazophenol).
Protein concentrations were determined by the Biorad dye method using recombinant HCV protease standards previously quantified by amino acid analysis. Prior to assay initiation, the enzyme storage buffer (50 mM sodium phosphate pH 8.0, 300 mM NaCl, 10% glycerol, 0.05% lauryl maltoside and 10 mM DTT) was exchanged for the assay buffer (25 mM MOPS pH 6.5, 300 mM NaCl, 10% glycerol, 0.05% lauryl maltoside, 5 μM EDTA and 5 μM DTT) utilizing a Biorad Bio-Spin P-6 prepacked column.
Protease Assay: HCV protease assays were performed at 30° C. using a 200 μl reaction mix in a 96-well microtiter plate. Assay buffer conditions (25 mM MOPS pH 6.5, 300 mM NaCl, 10% glycerol, 0.05% lauryl maltoside, 5 μM EDTA and 5 μM DTT) were optimized for the NS3/NS4A heterodimer (D. L. Sali et al, ibid.)). […] Fifty μls of prewarmed protease (12 nM, 30° C.) in assay buffer, was then used to initiate the reaction (final volume 200 μl).The plates were monitored over the length of the assay (60 minutes) for change in absorbance at the appropriate wavelength (340 nm for 3-Np and HMC, 370 nm for PAP, and 400 nm for 4-Np) using a Spectromax Plus microtiter plate reader equipped with a monochrometer (acceptable results can be obtained with plate readers that utilize cutoff filters). Proteolytic cleavage of the ester linkage between the Nva and the chromophore was monitored at the appropriate wavelength against a no enzyme blank as a control for non-enzymatic hydrolysis. The evaluation of substrate kinetic parameters was performed over a 30-fold substrate concentration range (˜6-200 μM). Initial velocities were determined using linear regression and kinetic constants were obtained by fitting the data to the Michaelis-Menten equation using non-linear regression analysis (Mac Curve Fit 1.1, K. Raner). Turnover numbers (kcat) were calculated assuming the enzyme was fully active.
Evaluation of Inhibitors and Inactivators: The inhibition constants (Kj) for the competitive inhibitors Ac-D-(D-Gla)-L-I-(Cha)-C-OH (27) (SEQ ID NO: 2), Ac-DTEDVVA(Nva)-OH (SEQ ID NO: 3) and Ac-DTEDVVP(Nva)-OH (SEQ ID NO: 4) were determined experimentally at fixed concentrations of enzyme and substrate by plotting vo/vi vs. inhibitor concentration ([I]o) according to the rearranged Michaelis-Menten equation for competitive inhibition kinetics: vo/vi=1[I]o/(Ki(1+[S]o/Km)), where vo is the uninhibited initial velocity, vi is the initial velocity in the presence of inhibitor at any given inhibitor concentration ([I]o) and [S]o is the substrate concentration used. The resulting data were fitted using linear regression and the resulting slope, 1/(Ki(1[S]o/Km), was used to calculate the Ki* value.

C=CCNC(=O)C(=O)C(CCC)NC(=O)C1CNC(=O)N1C(=O)C(NC(=O)C(NC(=O)OC(C)(C)C)C(C)C)C(C)C (single isomer, unassigned) [Example 9] and C=CCNC(=O)C(=O)C(CCC)NC(=O)C1CN(Cc2ccccc2)C(=O)N1C(=O)C(NC(=O)C(NC(=O)OC(C)(C)C)C(C)C)C(C)C (stereo not drawn) [Example 15] cannot be ordered by Ki: over 50 µM for the first, over 50 µM for the second.

First: C=CCNC(=O)C(=O)C(CCC)NC(=O)C1CN(CC(=O)OCC)C(=O)N1C(=O)C(NC(=O)C(NC(=O)C(CCC(=O)OC(C)(C)C)NC(=O)C(CCC(=O)OC(C)(C)C)NC(C)=O)C(C)C)C(C)C (stereo not drawn) [Example 4]
Second: C=CCNC(=O)C(=O)C(CCC)NC(=O)C1CNC(=O)N1C(=O)C(NC(=O)C(NC(=O)C(CCC(=O)OC(C)(C)C)NC(=O)C(CCC(=O)OC(C)(C)C)NC(C)=O)C(C)C)C(C)C (stereo not drawn) [Example 11]
The Ki of the first is lower: 1 to 50 µM for the first, over 50 µM for the second. The first binds more tightly here.

C=CCNC(=O)C(=O)C(CCC)NC(=O)C1CN(CC(=O)OCC)C(=O)N1C(=O)C(NC(=O)C(NC(=O)C(CCC(=O)O)NC(=O)C(CCC(=O)O)NC(C)=O)C(C)C)C(C)C (stereo not drawn) [Example 5] and C=CCNC(=O)C(=O)C(CCC)NC(=O)C1CNC(=O)N1C(=O)C(NC(=O)C(NC(=O)C(CCC(=O)O)NC(=O)C(CCC(=O)O)NC(C)=O)C(C)C)C(C)C (stereo not drawn) [Example 12] fall in the same range of Ki: 1 to 50 µM for the first, 1 to 50 µM for the second.

C=CCNC(=O)C(=O)C(CCC)NC(=O)C1CN(CC(=O)OCC)C(=O)N1C(=O)C(NC(=O)C(CCC(=O)OC(C)(C)C)NC(C)=O)C(C)C (stereo not drawn) [Example 6] and C=CCNC(=O)C(=O)C(CCC)NC(=O)C1CN(CC(=O)OCC)C(=O)N1C(=O)C(NC(=O)C(CCC(=O)O)NC(C)=O)C(C)C (stereo not drawn) [Example 7] cannot be ordered by Ki: over 50 µM for the first, over 50 µM for the second.

C=CCNC(=O)C(=O)C(CCC)NC(=O)C1CN(CC(=O)OCC)C(=O)N1C(=O)C(NC(=O)C(NC(=O)OCC(C)C)C(C)C)C(C)C (stereo not drawn) [Example 8] and C=CCOC(=O)CNC(=O)C(=O)C(CCC)NC(=O)C1CN(Cc2ccccc2)C(=O)N1C(=O)C(NC(=O)C(NC(=O)OC(C)(C)C)C(C)C)C(C)C (stereo not drawn) [Example 21] cannot be ordered by Ki: over 50 µM for the first, over 50 µM for the second.

C=CCNC(=O)C(=O)C(CCC)NC(=O)C1CN(Cc2ccccc2)C(=O)N1C(=O)C(NC(=O)C(N)C(C)C)C(C)C (stereo not drawn) [Example 16] and CCCC(NC(=O)C1CN(Cc2ccccc2)C(=O)N1C(=O)C(NC(=O)C(NC(=O)OC(C)(C)C)C(C)C)C(C)C)C(=O)C(=O)NCC(=O)O (stereo not drawn) [Example 24] cannot be ordered by Ki: over 50 µM for the first, over 50 µM for the second.

C=CCNC(=O)C(=O)C(CCC)NC(=O)C1CN(Cc2ccccc2)C(=O)N1C(=O)C(NC(=O)C(NC(=O)C(CCC(=O)OC(C)(C)C)NC(=O)C(CCC(=O)OC(C)(C)C)NC(C)=O)C(C)C)C(C)C (stereo not drawn) [Example 17] and CCCC(NC(=O)C1CN(Cc2ccccc2)C(=O)N1C(=O)C(NC(=O)C(NC(=O)C(CCC(=O)OC(C)(C)C)NC(=O)C(CCC(=O)OC(C)(C)C)NC(C)=O)C(C)C)C(C)C)C(=O)C(=O)NCC(=O)O (stereo not drawn) [Example 25] cannot be ordered by Ki: over 50 µM for the first, over 50 µM for the second.

C=CCNC(=O)C(=O)C(CCC)NC(=O)C1CN(Cc2ccccc2)C(=O)N1C(=O)C(NC(=O)C(NC(=O)C(CCC(=O)O)NC(=O)C(CCC(=O)O)NC(C)=O)C(C)C)C(C)C (stereo not drawn) [Example 18] and C=CCOC(=O)CNC(=O)C(=O)C(CCC)NC(=O)C1CN(Cc2ccccc2)C(=O)N1C(=O)C(NC(=O)C(NC(=O)C(CCC(=O)O)NC(=O)C(CCC(=O)O)NC(C)=O)C(C)C)C(C)C (stereo not drawn) [Example 23] fall in the same range of Ki: 0.001 to 1 µM for the first, 0.001 to 1 µM for the second.

C=CCOC(=O)CNC(=O)C(=O)C(CCC)NC(=O)C1CN(Cc2ccccc2)C(=O)N1C(=O)C(NC(=O)C(NC(=O)C(CCC(=O)OC(C)(C)C)NC(=O)C(CCC(=O)OC(C)(C)C)NC(C)=O)C(C)C)C(C)C (stereo not drawn) [Example 22] and C=CCOC(=O)CNC(=O)C(=O)C(CCC)NC(=O)C1CN(Cc2ccc(Cl)c(Cl)c2)C(=O)N1C(=O)C(NC(=O)C(NC(=O)C(CCC(=O)OC(C)(C)C)NC(=O)C(CCC(=O)OC(C)(C)C)NC(C)=O)C(C)C)C(C)C (stereo not drawn) [Example 27] cannot be ordered by Ki: over 50 µM for the first, over 50 µM for the second.

First: C=CCOC(=O)CNC(=O)C(=O)C(CCC)NC(=O)C1CN(Cc2ccc(Cl)c(Cl)c2)C(=O)N1C(=O)C(NC(=O)C(NC(=O)OC(C)(C)C)C(C)C)C(C)C (stereo not drawn) [Example 26]
Second: C=CCOC(=O)CNC(=O)C(=O)C(CCC)NC(=O)C1CN(Cc2ccc(Cl)c(Cl)c2)C(=O)N1C(=O)C(NC(=O)C(NC(=O)C(CCC(=O)O)NC(=O)C(CCC(=O)O)NC(C)=O)C(C)C)C(C)C (stereo not drawn) [Example 28]
The Ki of the first is higher: over 50 µM for the first, 0.001 to 1 µM for the second.

Same assay, conditions: recombinant heterodimeric NS3/NS4A, chromogenic ester substrates, 30° C., pH 6.5; ranges of Ki* values; read-out: Ki*

C=CCNC(=O)C(=O)C(CCC)NC(=O)[C@@H]1CN(CC(=O)OCC)C(=O)N1C(=O)OCc1ccccc1 (stereo partly drawn) [Example 1] and C=CCNC(=O)C(=O)C(CCC)NC(=O)[C@@H]1CN(CCCC(=O)OCC)C(=O)N1C(=O)OCc1ccccc1 (stereo partly drawn) [Example 2] cannot be ordered by Ki: over 50 µM for the first, over 50 µM for the second.

C=CCNC(=O)C(=O)C(CCC)NC(=O)C1CN(CC(=O)OCC)C(=O)N1C(=O)C(NC(=O)OC(C)(C)C)C(C)C (stereo not drawn) [Example 3] and C=CCNC(=O)C(=O)C(CCC)NC(=O)C1CNC(=O)N1C(=O)C(NC(=O)OC(C)(C)C)C(C)C (stereo not drawn) [Example 13] cannot be ordered by Ki: over 50 µM for the first, over 50 µM for the second.

C=CCNC(=O)C(=O)C(CCC)NC(=O)C1CNC(=O)N1C(=O)C(N)C(C)C (stereo not drawn) [Example 14] and C=CCOC(=O)CNC(=O)C(=O)C(CCC)NC(=O)C1CN(Cc2ccccc2)C(=O)N1C(=O)C(N)C(C)C (stereo not drawn) [Example 20] cannot be ordered by Ki: over 50 µM for the first, over 50 µM for the second.

First: C=CCOC(=O)CNC(=O)C(=O)C(CCC)NC(=O)C1CN(Cc2ccccc2)C(=O)N1C(=O)C(NC(=O)OC(C)(C)C)C(C)C (stereo not drawn) [Example 19]
Second: CCCC(NC(=O)C1CN(Cc2ccc(Cl)c(Cl)c2)C(=O)N1C(=O)C(NC(=O)OC(C)(C)C)C1CCCCC1)C(=O)C(=O)NCC(=O)N[C@H](C(N)=O)c1ccccc1 (stereo partly drawn) [Example 30]
The Ki of the first is higher: over 50 µM for the first, 1 to 50 µM for the second.

First: CCCC(NC(=O)C1CN(Cc2ccc(Br)cc2)C(=O)N1C(=O)C(NC(=O)OC(C)(C)C)C1CCCCC1)C(=O)C(=O)NCC(=O)N[C@H](C(=O)OCc1ccccc1)c1ccccc1 (stereo partly drawn) [Example 31]
Second: CCCC(NC(=O)C1CN(Cc2ccc(Cl)cc2)C(=O)N1C(=O)C(NC(=O)OC(C)(C)C)C1CCCCC1)C(=O)C(=O)NCC(=O)N[C@H](C(=O)OCc1ccccc1)c1ccccc1 (stereo partly drawn) [Example 33]
The Ki of the first is higher: over 50 µM for the first, 1 to 50 µM for the second.

First: CCCC(NC(=O)C1CN(Cc2cccc(Br)c2)C(=O)N1C(=O)C(NC(=O)OC(C)(C)C)C1CCCCC1)C(=O)C(=O)NCC(=O)N[C@H](C(=O)OCc1ccccc1)c1ccccc1 (stereo partly drawn) [Example 32]
Second: CCCC(NC(=O)C1CN(Cc2cccc(Cl)c2)C(=O)N1C(=O)C(NC(=O)OC(C)(C)C)C1CCCCC1)C(=O)C(=O)NCC(=O)N[C@H](C(=O)OCc1ccccc1)c1ccccc1 (stereo partly drawn) [Example 34]
The Ki of the first is higher: over 50 µM for the first, 1 to 50 µM for the second. The second binds more tightly here.

CCCC(NC(=O)C1CN(Cc2ccc(Cl)c(Cl)c2)C(=O)N1C(=O)C(NC(=O)OCC(C)C)C1CCCCC1)C(=O)C(=O)NCC(=O)N[C@H](C(N)=O)c1ccccc1 (stereo partly drawn) [Example 35] and CCCC(NC(=O)C1CN(Cc2ccc(Cl)cc2)C(=O)N1C(=O)C(NC(=O)OCC(C)C)C1CCCCC1)C(=O)C(=O)NCC(=O)N[C@H](C(=O)OCc1ccccc1)c1ccccc1 (stereo partly drawn) [Example 38] cannot be ordered by Ki: over 50 µM for the first, over 50 µM for the second.

First: CCCC(NC(=O)C1CN(Cc2ccc(Br)cc2)C(=O)N1C(=O)C(NC(=O)OCC(C)C)C1CCCCC1)C(=O)C(=O)NCC(=O)N[C@H](C(=O)OCc1ccccc1)c1ccccc1 (stereo partly drawn) [Example 36]
Second: CCCC(NC(=O)C1CN(Cc2cccc(Br)c2)C(=O)N1C(=O)C(NC(=O)OCC(C)C)C1CCCCC1)C(=O)C(=O)NCC(=O)N[C@H](C(=O)OCc1ccccc1)c1ccccc1 (stereo partly drawn) [Example 37]
The Ki of the first is lower: 1 to 50 µM for the first, over 50 µM for the second. The first binds more tightly here.

From patent US6838475B2, “Imidazolidinones as NS3-serine protease inhibitors of hepatitis C virus” (Schering Corporation, priority 2000, dated 2005)
